# In PMC6919601, “Identification of Plasmodium dipeptidyl aminopeptidase allosteric inhibitors by high throughput screening” (PLoS ONE, 2019):
# The whole screen tested about 110,000 compounds, of which about 230 (0.21%) showed an effect of 50% or more. The list shows a part of the results.
# Target: DPAP1 (Plasmodium falciparum, UniProt Q8IIJ9)
# Experiment: primary screen, percent inhibition; read by cleavage of a fluorogenic dipeptide substrate; higher = more effect of the substance
# Set-up: species or system P. falciparum D10 trophozoite lysates; single well
# 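Also: 30 min substrate incubation versus DMSO and 10 µM JCP410 controls.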
# Sequence of DPAP1 (Q8IIJ9 whole entry, looked up): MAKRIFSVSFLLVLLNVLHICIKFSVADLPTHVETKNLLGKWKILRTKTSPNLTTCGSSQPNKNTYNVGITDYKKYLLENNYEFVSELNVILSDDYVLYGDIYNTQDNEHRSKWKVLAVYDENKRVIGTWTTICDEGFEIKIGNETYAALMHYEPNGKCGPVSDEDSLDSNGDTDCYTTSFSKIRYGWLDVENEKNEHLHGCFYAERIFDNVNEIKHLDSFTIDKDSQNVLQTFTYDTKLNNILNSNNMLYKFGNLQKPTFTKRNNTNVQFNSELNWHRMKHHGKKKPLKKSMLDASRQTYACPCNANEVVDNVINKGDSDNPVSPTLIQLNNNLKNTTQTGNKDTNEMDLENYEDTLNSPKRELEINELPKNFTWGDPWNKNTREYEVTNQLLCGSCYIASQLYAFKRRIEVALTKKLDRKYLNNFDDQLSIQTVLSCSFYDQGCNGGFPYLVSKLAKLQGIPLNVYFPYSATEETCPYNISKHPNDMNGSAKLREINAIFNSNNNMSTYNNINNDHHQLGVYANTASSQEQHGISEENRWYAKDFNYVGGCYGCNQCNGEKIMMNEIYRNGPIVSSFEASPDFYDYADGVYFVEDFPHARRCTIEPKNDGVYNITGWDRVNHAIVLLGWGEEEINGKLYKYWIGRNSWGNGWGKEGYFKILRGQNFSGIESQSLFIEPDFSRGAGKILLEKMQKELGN
row,SMILES,% Inhibition @ 10 uM
1,CN(CP(=O)(O)CCc1ccccc1)S(C)(=O)=O,-5.01%
2,Cc1ccc(Cl)cc1-n1nnnc1C1(N2CCCC2)CCCCC1,-0.969%
3,Cc1ccc(-c2nn(-c3ccccc3)cc2CN(Cc2ccccc2)C(=O)CCC(=O)O)o1,-9.37%
4,O=C(Cn1nc(-c2ccc(Cl)cc2)ccc1=O)N1CCC2(CC1)OCCO2,-1.79%
5,Cc1cc(NC(=O)CSc2nc3ccsc3c(=O)n2Cc2ccccn2)[nH]n1,-2.03%
6,Cc1nn(Cc2ccc(C(=O)NC3C4CC5CC(C4)CC3C5)o2)c(C)c1Cl (centres unmarked),2.46%
7,COCCNC(=O)Cn1nc(-c2ccc(C)cc2)ccc1=O,-3.22%
8,Cc1oc(-c2ccc(Cl)cc2)nc1CN1CCC(C(=O)NCCC2=CCCCC2)CC1,-4.71%
9,COc1cc(CN2CCN(c3ccccc3)CC2)cc(Br)c1O,-3.65%
10,CC(C)(C)N1C(=O)C2C3C=CC(C2C1=O)C1C(=O)N(C(C)(C)C)C(=O)C31 (centres unmarked),-2.18%
11,COc1ccc(OC)c(C2C3=C(O)CCCC3=NC(C)=C2C(=O)Nc2ccccc2F)c1 (centres unmarked),0.121%
12,C#CCN1C(=O)S/C(=C\c2ccc(OC(C)C(=O)O)c(OC)c2)C1=O (centres unmarked),1.63%
13,CCC(C)NC(=O)c1c(O)nc2c(c1O)CCCC2 (centres unmarked),-0.458%
14,Cc1ccsc1C1C=C(c2cccc(Br)c2)Nc2ncnn21 (centres unmarked),-3.37%
15,O=C(Cn1ccc2cc(S(=O)(=O)N3CCCC3)ccc21)NCCc1ccc(Cl)cc1,-2.56%
16,Cc1c(CN(C)CCc2ccccc2)c(=O)n(-c2ccccc2)n1C,-0.292%
17,O=S(=O)(c1ccccc1)N1CCN(Cc2cccc(Oc3ccccc3)c2)CC1,-3.4%
18,CN1CCN(c2nc3c(O)ncnc3[nH]2)CC1,-1.54%
19,CCc1ccccc1-n1c(C)cc(/C=C2/SC(=O)N(C)C2=O)c1C,-6.69%
20,CC(=O)c1ccc2c(c1)c1ccccc1n2C,2.62%
21,COc1ccc(Cl)cc1N(CC(=O)Nc1ccc(C(C)C)cc1)S(C)(=O)=O,0.324%
22,N#CC1=C(N)C(C#N)(C#N)C(c2cccnc2)C2CSCC=C12 (centres unmarked),-1.93%
23,CCOC(=O)N1CCN(C(=O)c2ccc3c(SCC(=O)O)c4c(nc3c2)CCC4)CC1,1.15%
24,CC(C)NC(=O)c1cc2c(ccc3ccccc32)o1,-0.795%
25,Fc1cccc(Cl)c1-c1nnc2ccc(N3CCN(Cc4ccc5c(c4)OCO5)CC3)nn12,1.76%

row,SMILES,% Inhibition @ 10 uM
1,CC(C)(C)OC(=O)N[C@@H](Cc1ccc(Br)s1)C(=O)NCC#N,-1.41%
2,Cc1[nH]c2ccccc2c1/C=C1/SC(=O)N(CC(=O)Nc2ccc3c(c2)OCO3)C1=O,8.13%
3,C=CCN1/C(=N\C(=O)C(CC)CC)SC2CS(=O)(=O)CC21 (centres unmarked),-2.92%
4,Cc1onc(-c2ccccc2)c1C(=O)N1CCc2ccccc21,-0.267%
5,O=C(CNC(=O)c1ccc(Cl)cc1Cl)c1ccccc1,5.73%
6,O=C(c1ccccc1)c1oc2ccccc2c1NC(=O)c1cc2ccccc2oc1=O,-2.91%
7,O=C(Cn1nnc(-c2ccccc2)n1)NCc1ccco1,-0.169%
8,CCCS(=O)(=O)N1CCC(C(=O)NCCCN2CCCC2=O)CC1,-9.35%
9,CCOc1ccc(-n2c(C)cc(/C=C3\C(=N)N4N=C(N5CCCC5)SC4=NC3=O)c2C)cc1,3.32%
10,CN(CCC#N)C(=O)c1nn(C)c2c1COc1ccccc1-2,1.68%
11,COC(=O)c1c(N)n(CCc2ccc(OC)c(OC)c2)c2nc3ccccc3nc12,-5.28%
12,COc1ccc(CC(=O)Nc2ccccc2C(F)(F)F)cc1,-2.36%
13,Cc1ccc(CNC(=O)c2ccc3[nH]c(C)c(C)c3c2)cc1,-4.33%
14,Fc1ccccc1N1CCN(Cc2cccs2)CC1,-5.57%
15,O=C(Nc1sc2c(c1C(=O)NCC1CCCO1)CCCC2)c1ccccc1 (centres unmarked),-2.67%
16,CCOC(=O)C1CCCN(Cc2ccoc2)C1 (centres unmarked),1.55%
17,Clc1ccc(CNC2CN3CCC2CC3)c(Cl)c1 (centres unmarked),3.19%
18,CCOc1nc(C)ccc1-c1noc(-c2cccs2)n1,-5%
19,COc1cc(C2CC(=O)c3cnc4c(-c5ccccc5)c(C)nn4c3C2)cc(OC)c1OC (centres unmarked),-1.11%
20,CC(=O)Nc1nonc1NC(=O)c1ccc(F)cc1,1.03%
21,CC1CCCN(C(=O)c2ccc(COc3ccc(Cl)cc3Cl)o2)C1 (centres unmarked),-3.13%
22,O=c1c2ccccc2n2c(-c3cc(Cl)ccc3O)nnc2n1CCc1ccccc1,-1.72%
23,COc1ccc(C2=NN3C(C2)c2cccc(OC)c2OC3(C)C)cc1 (centres unmarked),38.5%
24,COC(=O)c1c(NC(=O)/C=C/c2ccccc2)sc2c1CCC2,10.5%
25,CCOC(=O)c1c(C(=O)OCC)c2n(c1-c1ccccc1)Cc1ccccc1-2,2.39%

row,SMILES,% Inhibition @ 10 uM
1,CCOC(=O)c1c(NC(=O)c2ccccc2)sc([N+](=O)[O-])c1-c1ccccc1,-6.99%
2,NC(=O)CCN(C1CCCCC1)S(=O)(=O)c1cccc2nsnc12,-5.36%
3,CCc1ccc(-c2cn3c(n2)sc2cc(C(=O)O)ccc23)cc1,-7.02%
4,C=C(C)CN1CCN(C(=O)CCCc2c[nH]c3ccccc23)CC1,0.238%
5,COc1ccc(/C=C/C(=O)Nc2ccncc2)cc1OC,0.587%
6,CC(Cc1ccc(F)cc1)NCC(C)(C)CN(C)C (centres unmarked),-0.292%
7,O=C(Nc1cnc(O)nc1O)c1cccs1,-1.2%
8,CC(=O)c1oc2ccccc2c1NC(=O)Cc1ccccc1,2.36%
9,COc1cccc(-c2ccc(C#N)c(SCC(=O)Nc3ncc(C)s3)n2)c1,-6.18%
10,O=C(Nc1ccc2c(c1)OCO2)c1ccc(Cl)c(Cl)c1,-6.39%
11,COc1ccc(/C=c2\sc3nc(-c4cc(OC)c(OC)c(OC)c4)nn3c2=O)c(OC)c1,-2.98%
12,CC(NC(=O)c1ccc(-n2cnc3cccnc32)cc1)c1ccccc1 (centres unmarked),-5.92%
13,CC1=Nc2ncnn2C(c2ccc(C)cc2)/C1=C(\O)OC1CCCCC1 (centres unmarked),2.17%
14,CCCn1c(SCc2ccc(F)cc2)nc2c1c(=O)n(C)c(=O)n2C,7.18%
15,CCO/C(O)=C(/C(=N)NCc1ccco1)C(=O)c1ccccc1,2.95%
16,Cc1ccccc1NC(=O)c1cccc2c1C(=O)c1ccccc1-2,4.74%
17,CCOC(=O)N1CCC(/N=c2\c(O)c(O)\c2=N/Cc2cccc(OC)c2)CC1,3.54%
18,CNC(=O)C1CN(S(=O)(=O)c2ccccc2)CCN1S(=O)(=O)c1ccccc1 (centres unmarked),-4.72%
19,CCOC(=O)C1=C(CN2CC(C)CC(C)C2)NC(=O)NC1c1cccs1 (centres unmarked),3.54%
20,Cc1ccccc1C(=O)Nc1sc2c(c1C(=O)NCc1cccnc1)CCCCC2,2.03%
21,O=C(NC1CCCCCC1)C1CCCN(c2ncnc3c2sc2cccc(F)c23)C1 (centres unmarked),-2.37%
22,CC(C)CCNc1nc2ccccc2c2nc(-c3ccccc3)nn12,-4.21%
23,COc1cc(/C=C2/C(=N)N3OC(C)=CC3=NC2=O)cc(Cl)c1OCCOc1ccccc1C,2%
24,CCc1ccc(Oc2nc3ccccn3c(=O)c2/C=C(\C#N)C(=O)NC)cc1,1.19%
25,O=C1OC2CC3CC1CC(O)(C3)C2 (centres unmarked),-1.6%

row,SMILES,% Inhibition @ 10 uM
1,CCCC(=O)c1ccc(Oc2nc3c(c(=O)n(C)c(=O)n3C)n2Cc2ccccc2C)cc1,0.9%
2,Cc1ccc(/C=C(\C#N)c2nc(-c3ccc([N+](=O)[O-])cc3)cs2)cc1,-0.546%
3,Cc1cc(C)cc(-n2c(C)cc(/C=C3\C(=N)N4N=C(N5CCOCC5)SC4=NC3=O)c2C)c1,-1.66%
4,CC1=C(C(=O)OC2CCCC2)C(c2ccc(C(F)(F)F)cc2)C2=C(O)CCCC2=N1 (centres unmarked),-3.41%
5,O=C(C1COc2cc(S(=O)(=O)NC3CCCC3)ccc2O1)N1CCCCC1 (centres unmarked),6.88%
6,Cc1c(C(=O)NCCCN2CCOCC2)oc2c1-c1nn(Cc3ccc(Cl)cc3)cc1CC2,3.27%
7,N#CC1=C(N)Oc2[nH]nc(-c3ccc4c(c3)OCO4)c2C1c1ccncc1 (centres unmarked),-0.941%
8,Cc1nc2nc(N)nn2c(C)c1Cl,-4.19%
9,COc1ccc(NC(=O)c2nc[nH]n2)cc1,-4.03%
10,Cc1cc(C)c2oc(C(=O)N(Cc3ccco3)C3CCS(=O)(=O)C3)cc(=O)c2c1 (centres unmarked),6.56%
11,Cc1sc(NC(=O)C2C3CCC(C3)C2C(=O)O)c(C(N)=O)c1C (centres unmarked),4.78%
12,CCN(CC)CCN(C)Cc1ccc(Cl)cc1Cl,1.26%
13,CC1CCN(C(=O)CC/N=c2/c(N3CCCC3)c(O)c2=O)CC1,3.3%
14,Cc1ccc2c(cnn2C(=O)CCCC(=O)NCCN2CCCC2)c1,-1.11%
15,CCn1c(=N)c(C(=O)NC(C)c2ccccc2)cc2c(=O)n3cc(C)ccc3nc21 (centres unmarked),1.97%
16,CCOCCCNC(=O)/C(C#N)=C/c1c(Oc2cccc(C)c2C)nc2c(C)cccn2c1=O,2%
17,CCCc1[nH]nc2c1C(c1ccc(OC)c(OC)c1)C(C#N)=C(N)O2 (centres unmarked),-6.27%
18,CC1=C(C(=O)Nc2ccc(F)cc2)C(c2ccc(Cl)cc2)n2ncnc2N1 (centres unmarked),4.75%
19,COc1ccccc1C1N(c2ccccn2)C(=O)C2CCCN21 (centres unmarked),-2.29%
20,COc1ccc(-c2cc(C(=O)N(C)Cc3ccccc3)no2)cc1,0.723%
21,CS(=O)(=O)N(CC(=O)NCc1ccc(Cl)cc1)c1ccc(F)cc1,-1.59%
22,CCCNC1=N/C(=C\c2ccccc2)C(=O)N1c1ccc(Cl)cc1,0.381%
23,Clc1ccc(OCCCCN2CCCCC2)cc1,5.06%
